This is an account of results in PubChem BioAssay AID488969 (Vanderbilt High Throughput Screening Facility, 2010).

Structures are written as SMILES. The full ranking holds about 110,000 compounds; the median of “z-score” is about -0.1, and the highest 2% start at about 2. The list shows a part of the results. Activity calls are given as the source filed them.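 The calls were made as follows: active = z-score in the third read window above 3 or below -3; inactive = the rest.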

The experiment deals with Metabotropic glutamate receptor 8 (Rattus norvegicus) (UniProt P70579). Nature of the experiment: rat mGluR8 modulators via GIRK flux, primary screen, cell-based, thallium flux, HTS (AID 488969). Particulars: HEK293 rat mGluR8, GIRK (G protein-gated inwardly rectifying potassium channel) thallium flux, FluoZin2; at 10 µM; stronger effect = higher value; submaximal glutamate (EC20) added with thallium.
UniProt P70579, sequence (P70579 whole entry, looked up): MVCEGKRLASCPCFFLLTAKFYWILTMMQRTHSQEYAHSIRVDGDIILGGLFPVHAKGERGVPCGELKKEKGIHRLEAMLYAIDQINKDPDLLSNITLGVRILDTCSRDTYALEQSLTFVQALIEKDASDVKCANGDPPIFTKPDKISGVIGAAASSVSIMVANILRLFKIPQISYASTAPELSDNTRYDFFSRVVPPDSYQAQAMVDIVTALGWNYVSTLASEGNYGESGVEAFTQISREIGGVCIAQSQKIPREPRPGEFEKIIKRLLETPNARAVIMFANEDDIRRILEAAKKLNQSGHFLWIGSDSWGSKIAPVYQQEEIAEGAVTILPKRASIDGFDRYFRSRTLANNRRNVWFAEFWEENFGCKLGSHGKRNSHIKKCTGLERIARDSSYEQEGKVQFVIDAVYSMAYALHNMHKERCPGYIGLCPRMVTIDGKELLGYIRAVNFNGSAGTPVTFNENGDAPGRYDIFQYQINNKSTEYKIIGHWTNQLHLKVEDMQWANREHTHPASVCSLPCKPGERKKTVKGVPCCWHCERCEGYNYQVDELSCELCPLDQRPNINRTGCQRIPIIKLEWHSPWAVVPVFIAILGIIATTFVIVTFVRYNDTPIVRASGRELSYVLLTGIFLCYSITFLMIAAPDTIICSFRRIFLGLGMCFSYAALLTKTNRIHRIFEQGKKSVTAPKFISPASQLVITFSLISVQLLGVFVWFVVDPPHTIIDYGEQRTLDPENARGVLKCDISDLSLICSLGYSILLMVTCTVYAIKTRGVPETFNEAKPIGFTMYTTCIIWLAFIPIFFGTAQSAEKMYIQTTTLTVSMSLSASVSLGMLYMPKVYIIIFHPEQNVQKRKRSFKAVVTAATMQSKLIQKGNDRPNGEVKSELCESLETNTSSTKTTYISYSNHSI
On to `CSc1nnc(C)c(=O)n1COC(=O)c1ccc(S(=O)(=O)N2CCOCC2)cc1`, for which the z-score is -0.333.

Turning to `O=C(CSc1cccc(C(F)(F)F)c1)NCc1ccccc1`, the z-score is 0.252.

Compound `CCCCCCCOC(=O)c1ccc(OC(=O)c2cccnc2)cc1` showed a z-score of -0.32.

In turn, `CCCCOc1ccc(C(=O)Oc2ccc(C)nc2)cc1` showed a z-score of -0.0482.

Consider `CCC1CCC(c2nnc(-c3ccc([N+](=O)[O-])cc3)o2)CC1` (stereo not given), for which the z-score was -0.252.

In turn, `CCOC(=O)N1CCC(Nc2c(NCCCN(CC)c3cccc(C)c3)c(=O)c2=O)CC1` registered a z-score of 0.617.

`N#Cc1nc(Cc2ccccc2)oc1N1CCC(C(N)=O)CC1`: the z-score was found to be 0.14.

Consider `CCOC(=O)c1c(C)n(C)c2ccc(OCC(O)CNC(CC)CO)cc12` (stereo not given), for which the z-score came out at 0.0591.

For the compound `COc1ccc(C)cc1NC(=O)CNC(=O)Cn1ccc2ccccc2c1=O`, the z-score was determined as 0.669.

`N#CC1=C(N)SC(N)=C(C#N)C1c1ccnc2ccccc12` displayed a z-score of -0.246.

Regarding `O=C1CC(SC2=NCCS2)C(=O)N1c1ccc(Cl)cc1` (stereo not given), the z-score was -0.135.

With `O=C(NC1CCN(C(=S)NCc2ccco2)CC1)c1ccc(F)cc1`, the z-score was -0.521.

Consider `O=C(CN(C1CCCCC1)S(=O)(=O)c1ccc(Cl)cc1)N1CCOCC1`, for which the z-score is -0.292.

In the case of `Cc1ccc2[nH]c3c(=O)n(CCC4=CCCCC4)cnc3c2c1`, the z-score is -0.447.

For `CCC(C)(C)C(=O)Nc1ncc(S(=O)(=O)c2ccc([N+](=O)[O-])cc2)s1`, the z-score was -0.167.

As to `CCN(C(=O)c1cnc(N2CCN(c3ncccn3)CC2)c2ccccc12)c1cccc(Cl)c1`, the z-score was -0.459.

As for `CC1Cn2c(COc3ccccc3)nnc2S1` (stereo not given), the z-score amounted to 0.617.

On to `COc1ccc(C2CC(c3ccc(Cl)c(Cl)c3)Nc3nc(N)nn32)cc1` (stereo not given), for which the z-score is active: 3.08.

The compound `O=C(c1n[nH]c(=O)c2ccccc12)N1CCN(c2ccccc2Cl)CC1` yielded a z-score of -0.0334.

In the case of `Cc1cc(=O)n(C)c(=O)n1CCCCCN1CCCC1`, the z-score was 0.974.

Regarding `O=C(c1ccccc1NS(=O)(=O)c1cccs1)N1CCOCC1`, the z-score was 0.192.

In turn, `Cn1c(N)c(C(=O)COC(=O)C2CCCCC2)c(=O)n(C)c1=O` yielded a z-score of -0.182.

Turning to `O=C(Nc1ccccc1Cl)c1c(F)c(F)c(F)c(F)c1F`, the z-score is -0.281.

`Clc1ccc(-n2ncc3c(NCc4ccccn4)ncnc32)cc1`: the z-score worked out at 1.73.

Regarding `CCC(C)C(NC(=O)C1CCC(C)CC1)C(=O)NC(CCSC)C(=O)OC` (stereo not given), the z-score was -0.493.

`CCCn1nnnc1-c1ccc(Cl)cc1` showed a z-score of 0.0464.

Turning to `Cc1[nH]c(=O)[nH]c1CN1CCCCC1`, the z-score stood at 0.0385.

On to `COc1ccc(C2CC(c3ccc(OC)cc3)n3nc(NC(=O)c4cccs4)nc3N2)cc1` (stereo not given), for which the z-score was -0.138.

`O=C(CSc1nc(-c2cccs2)cc(C(F)(F)F)n1)NCc1ccccc1` came in with a z-score of -0.654.

Consider `CN(Cc1ccccc1)C(=O)Cn1cccc1C(=O)c1ccccc1`, for which the z-score was -0.0101.

Consider `COc1ccc(NC(=O)c2ccccc2O)c(OC)c1`, for which the z-score was 0.531.

Consider `O=C1C2C3C=CC(C3=C3CCCCC3)C2C(=O)N1Cc1ccccc1` (stereo not given), for which the z-score was -0.447.

Regarding `Cc1ccc(N(CC(=O)NCc2ccc3c(c2)OCO3)S(=O)(=O)c2c(C)noc2C)cc1`, the z-score was -0.388.

For `CCOc1ccc(-c2[nH]ncc2-c2csc(C)n2)c(O)c1`, the z-score is -0.285.

On to `CCOC(=O)c1cc2c(=O)n3ccccc3nc2n(CCCOC)c1=NC(=O)c1cccnc1`, for which the z-score turned out to be 0.523.

Take `C=CCNC(=O)C(C#N)c1nc2ccccc2nc1N1CCCCCC1` (stereo not given): the z-score was -0.512.

In turn, `Cc1ccc(-n2c(Cc3cccn3C)nnc2SCC(=O)Nc2cc(C)on2)cc1` had a z-score of -0.345.

As for `COC(=O)c1ccccc1NC(=O)Nc1ccc(C(=O)N2CCCC2)cc1`, the z-score amounted to 0.405.

In the case of `CCOC(=O)c1nc2cc3n(c(CC(C)C)c-2c1C)CC(C)=C3C`, the z-score was found to be 0.604.

The compound `Cc1cc(SCC(=O)c2cccs2)n2nc(C)c(-c3ccc(Cl)cc3)c2n1` yielded a z-score of -0.373.

Turning to `CCn1cc(C(=O)Nc2sc(C)c(C)c2C(=O)OC)cn1`, the z-score was 0.032.

`COc1ccc(OC)c(NC(=O)CCN2CCN(c3ccccc3F)CC2)c1` gave a z-score of -0.262.

Take `C=CCOc1cccc(C2C(C(=O)c3ccco3)=C(O)C(=O)N2Cc2ccncc2)c1` (stereo not given): the z-score was -0.882.

For `Cc1cccc(NC(=S)NC2CC3CCCC(C2)N3Cc2cccs2)c1C` (stereo not given), the z-score is -0.0629.

`CC(C)OC(=O)c1cc(NC(=S)Nc2ccc([N+](=O)[O-])cc2)cc(C(=O)OC(C)C)c1` had a z-score of -0.156.

`Cn1c(=O)c2c(nc(SCC(=O)NCc3ccco3)n2C)n(C)c1=O` had a z-score of 0.332.

Compound `Cc1nn(Cc2ccccc2Cl)c2sc(C(=O)OC3CCCC3=O)cc12` (stereo not given) registered a z-score of 0.555.

Consider `Cc1c(NC(=S)NC(=O)c2ccco2)c(=O)n(-c2ccccc2)n1C`, for which the z-score was -0.135.

`CCOC(=O)c1c(N)c(C#N)cn1-c1ccccc1` yielded a z-score of 0.195.

As for `[O-]/[N+](=C\c1ccc(F)cc1)c1ccccc1`, the z-score came out at 0.527.

In the case of `O=C1CCC(=O)N1c1ccc(CSc2nnnn2C2CCCCC2)cc1`, the z-score was -0.0111.

Turning to `CCC1(CC)NC(=O)N(CC(=O)OCC(=O)Nc2ccc(C(F)(F)F)cc2)C1=O`, the z-score was 0.255.

On to `N#CCSc1nc2c(c(=O)n1Cc1ccccc1)C1(CCCC1)Cc1ccccc1-2`, for which the z-score was -0.165.

Turning to `O=C(Nc1c(Cl)cc(Cl)cc1C(=O)NCc1cccnc1)c1ccc(Cl)cc1Cl`, the z-score is -0.128.

For `O=C(Nc1cccc([N+](=O)[O-])c1)c1cnccn1`, the z-score was determined as 0.337.

Compound `Cc1ccc(C(=O)/C=C/Nc2ccc3c(c2)OCO3)cc1` yielded a z-score of -0.0443.

On to `Cc1ccc(CN2CCC(c3nc4ccc(Cl)cc4[nH]3)CC2)cc1`, for which the z-score was 1.44.

`O=C1OC2CC3CC1CC(O)(C3)C2` (stereo not given) yielded a z-score of -0.0418.

In turn, `Cc1ccc(Oc2nc(CN3CCOCC3)nc3sc4c(c23)CCC(C)C4)cc1` (stereo not given) gave a z-score of -0.757.

Compound `CCOC(=O)C1CCN(Cc2cnc(Oc3ccc(N)cc3)s2)CC1` showed a z-score of -0.0165.

For `O=C(O)c1cccnc1Oc1ccccc1`, the z-score came out at 0.0142.

In turn, `CC(NC(=O)Cn1cnc([N+](=O)[O-])n1)c1ccccc1` (stereo not given) had a z-score of 0.0249.

`O=S(=O)(NCC1OCCc2ccccc21)c1ccc(S(=O)(=O)N2CCOCC2)cc1` (stereo not given) came in with a z-score of -0.374.

`CC(C)c1nc(N2CCN(C(=O)c3ccco3)CC2)c2c3c(sc2n1)CCCC3` yielded a z-score of 1.42.

In the case of `CCOC(=O)CSC1=C(C#N)C(c2ccc(Cl)cc2)C(C(=O)OC)C(=O)N1` (stereo not given), the z-score was 1.29.

`C/C(=N\NC(=O)c1[nH]c2c([N+](=O)[O-])cc(C)cc2c1-c1ccccc1)c1cccnc1` displayed a z-score of 0.0489.

`COc1cccc(N2CCN(C3CC(=O)N(c4ccc(Cl)cc4)C3=O)CC2)c1` (stereo not given) gave a z-score of -0.638.

In turn, `COc1ccc(/C=N/NC(=O)c2cnccn2)cc1O` returned a z-score of -0.0916.

As to `CCC(Sc1ccccc1C(=O)O)C(=O)O` (stereo not given), the z-score was -0.394.

In turn, `O=C(O)C1C2CCC(O2)C1C(=O)Nc1cnn(Cc2ccccc2)c1` (stereo not given) displayed a z-score of -0.0973.
